Drawing on patent US11999716B2, “WDR5 inhibitors and modulators” (priority 2018, dated 2024), this text covers Ki for 18 compounds.

In the assay the target is WDR5 (Homo sapiens, UniProt P61964). Kind of assay: biochemical. Format: binding. Conditions: WDR5-His tag (Δ23, residues 24-334) 2 nM; 10mer-Thr-FAM probe 150 nM; Tb-anti-HIS 1 nM; 60 min, room temperature; read-out: Ki for Inhibition of WDR5 by TR-FRET assay. A general note: In TR-FRET formats the signal depends on donor and acceptor labels being close together.
As usually defined, the Ki is the equilibrium dissociation constant of an inhibitor or competing ligand from its target. In the case of `COc1ccnc([C@H](C2CC2)N2CCc3c(cc(Cn4ccnc4C)cc3-c3cn(C)nc3C)C2=O)c1` [Example 203, (S)-2-(Cyclopropyl(4-methoxypyridin-2-yl)methyl)-5-(1,3-dimethyl-1H-pyrazol-4-yl)-7-((2-methyl-1H-imidazol-1-yl)methyl)-3,4-dihydroisoquinolin-1(2H)-one], the Ki is < 0.05 nM.
`COc1ccnc([C@H](C)N2CCc3c(cc(Cn4ccnc4C)cc3-c3cccnc3C)C2=O)c1` [Example 202, (S)-2-(1-(4-Methoxypyridin-2-yl)ethyl)-7-((2-methyl-1H-imidazol-1-yl)methyl)-5-(2-methylpyridin-3-yl)-3,4-dihydroisoquinolin-1(2H)-one]: the Ki worked out at 0.052 nM.
For the compound `Cc1cc(CN2CCc3c(cc(Cn4ccnc4C)cc3-c3cn(C)nc3C(F)(F)F)C2=O)on1` [Example 190, 7-((2-Methyl-1H-imidazol-1-yl)methyl)-5-(1-methyl-3-(trifluoromethyl)-1H-pyrazol-4-yl)-2-((3-methylisoxazol-5-yl)methyl)-3,4-dihydroisoquinolin-1(2H)-one], the inhibition constant Ki is 0.14 nM.
As for `CCc1ccnc([C@H](C)N2CCc3c(cc(Cn4ccnc4)cc3-c3cn(C)nc3C(F)(F)F)C2=O)c1` [Example 191, (S)-7-((1H-Imidazol-1-yl)methyl)-2-(1-(4-ethylpyridin-2-yl)ethyl)-5-(1-methyl-3-(trifluoromethyl)-1H-pyrazol-4-yl)-3,4-dihydroisoquinolin-1(2H)-one], the figure is 0.098 nM.
Take `COc1ccnc([C@H](C)N2CCc3c(cc(Cn4ccnc4C)cc3-c3cccnc3C(F)(F)F)C2=O)c1` [Example 192, (S)-2-(1-(4-Methoxypyridin-2-yl)ethyl)-7-((2-methyl-1H-imidazol-1-yl)methyl)-5-(2-(trifluoromethyl)pyridin-3-yl)-3,4-dihydroisoquinolin-1(2H)-one]: the inhibitory constant (Ki) was 0.096 nM.
For `Cc1cnc(CN2CCc3c(cc(Cn4ccnc4C)cc3-c3cn(C)nc3C(F)(F)F)C2=O)o1` [Example 194, 7-((2-Methyl-1H-imidazol-1-yl)methyl)-5-(1-methyl-3-(trifluoromethyl)-1H-pyrazol-4-yl)-2-((5-methyloxazol-2-yl)methyl)-3,4-dihydroisoquinolin-1(2H)-one], the Ki turned out to be 0.14 nM.
With `Cc1cccnc1CN1CCc2c(cc(Cn3ccnc3C)cc2-c2cn(C)nc2C(F)(F)F)C1=O` [Example 181, 7-((2-Methyl-1H-imidazol-1-yl)methyl)-5-(1-methyl-3-(trifluoromethyl)-1H-pyrazol-4-yl)-2-((3-methylpyridin-2-yl)methyl)-3,4-dihydroisoquinolin-1(2H)-one], the Ki was found to be 0.75 nM.
Turning to `CC[C@H](c1cncc(C)c1)N1CCc2c(cc(Cn3ccnc3C)cc2-c2cn(C)nc2C(F)(F)F)C1=O` [Example 198, (R)-7-((2-Methyl-1H-imidazol-1-yl)methyl)-5-(1-methyl-3-(trifluoromethyl)-1H-pyrazol-4-yl)-2-(1-(5-methylpyridin-3-yl)propyl)-3,4-dihydroisoquinolin-1(2H)-one], the inhibition constant (Ki) came to 0.056 nM.
In the case of `Cc1nccn1Cc1cc2c(c(-c3cn(C)nc3C(F)(F)F)c1)CCN(Cc1cn(C(C)C)c3ccccc13)C2=O` [Example 193, 2-((1-Isopropyl-1H-indol-3-yl)methyl)-7-((2-methyl-1H-imidazol-1-yl)methyl)-5-(1-methyl-3-(trifluoromethyl)-1H-pyrazol-4-yl)-3,4-dihydroisoquinolin-1(2H)-one], the inhibitory constant (Ki) was 0.3 nM.
As to `Cc1nccn1Cc1cc2c(c(-c3cn(C)nc3C(F)(F)F)c1)CCN(Cc1cn(C)c3ccccc13)C2=O` [Example 189, 7-((2-Methyl-1H-imidazol-1-yl)methyl)-2-((1-methyl-1H-indol-3-yl)methyl)-5-(1-methyl-3-(trifluoromethyl)-1H-pyrazol-4-yl)-3,4-dihydroisoquinolin-1(2H)-one], the Ki turned out to be 0.22 nM.
With `Cc1nnc(CN2CCc3c(cc(Cn4ccnc4C)cc3-c3cn(C)nc3C(F)(F)F)C2=O)o1` [Example 188, 2-((5-Methyl-1,3,4-oxadiazol-2-yl)methyl)-7-((2-methyl-1H-imidazol-1-yl)methyl)-5-(1-methyl-3-(trifluoromethyl)-1H-pyrazol-4-yl)-3,4-dihydroisoquinolin-1(2H)-one], the inhibition constant Ki turned out to be 0.18 nM.
The same measure for `Cc1cncc([C@H](C)N2CCc3c(cc(Cn4ccnc4C)cc3-c3cn(C)nc3C(F)(F)F)C2=O)c1` [Example 200, (S)-7-((2-Methyl-1H-imidazol-1-yl)methyl)-5-(1-methyl-3-(trifluoromethyl)-1H-pyrazol-4-yl)-2-(1-(5-methylpyridin-3-yl)ethyl)-3,4-dihydroisoquinolin-1(2H)-one]: < 0.05 nM; for `CC[C@@H](c1cncc(C)c1)N1CCc2c(cc(Cn3ccnc3C)cc2-c2cn(C)nc2C(F)(F)F)C1=O` [Example 199, (S)-7-((2-Methyl-1H-imidazol-1-yl)methyl)-5-(1-methyl-3-(trifluoromethyl)-1H-pyrazol-4-yl)-2-(1-(5-methylpyridin-3-yl)propyl)-3,4-dihydroisoquinolin-1(2H)-one]: < 0.05 nM.
The same measure for `Cc1cnc(CN2CCc3c(cc(Cn4ccnc4C)cc3-c3cn(C)nc3C(F)(F)F)C2=O)s1` [Example 195, 7-((2-Methyl-1H-imidazol-1-yl)methyl)-5-(1-methyl-3-(trifluoromethyl)-1H-pyrazol-4-yl)-2-((5-methylthiazol-2-yl)methyl)-3,4-dihydroisoquinolin-1(2H)-one]: 0.15 nM.
For `COc1ccnc([C@H](C)N2CCc3c(cc(Cn4ccnc4C)cc3-c3cnccc3C)C2=O)c1` [Example 196, (S)-2-(1-(4-Methoxypyridin-2-yl)ethyl)-7-((2-methyl-1H-imidazol-1-yl)methyl)-5-(4-methylpyridin-3-yl)-3,4-dihydroisoquinolin-1(2H)-one], the inhibition constant Ki came out at 0.27 nM.
With `CCn1cc(CN2CCc3c(cc(Cn4ccnc4C)cc3-c3cn(C)nc3C(F)(F)F)C2=O)c2ccccc21` [Example 187, 2-((1-Ethyl-1H-indol-3-yl)methyl)-7-((2-methyl-1H-imidazol-1-yl)methyl)-5-(1-methyl-3-(trifluoromethyl)-1H-pyrazol-4-yl)-3,4-dihydroisoquinolin-1(2H)-one], the Ki worked out at 0.14 nM.
With `Cc1ccnc([C@H](C2CC2)N2CCc3c(cc(Cn4ccnc4)cc3-c3ccc(F)cc3C)C2=O)c1` [Example 184, (S)-7-((1H-Imidazol-1-yl)methyl)-2-(cyclopropyl(4-methylpyridin-2-yl)methyl)-5-(4-fluoro-2-methylphenyl)-3,4-dihydroisoquinolin-1(2H)-one], the Ki is < 0.05 nM.
With `Cc1cncc([C@@H](C)N2CCc3c(cc(Cn4ccnc4C)cc3-c3cn(C)nc3C(F)(F)F)C2=O)c1` [Example 197, (R)-7-((2-Methyl-1H-imidazol-1-yl)methyl)-5-(1-methyl-3-(trifluoromethyl)-1H-pyrazol-4-yl)-2-(1-(5-methylpyridin-3-yl)ethyl)-3,4-dihydroisoquinolin-1(2H)-one], the Ki stood at 0.075 nM.
